{
  "source": "patent US20210395323A1",
  "about": "(UNIVERSIT T STUTTGART, published 2021)",
  "binders": {"B1": {"name": "human single-chain TNF variant (D143N/A145R, scTNFR2) (ligand)", "chain": "[about 150 residues omitted]GGGGSSSRTPSDKPVAHVVANPQAEGQLQWLNRRANALLANGVELRDNQLVVPSEGLYLIYSQVLFKGQGCPSTHVLLTHTISRIAVSYQTKVNLLSAIKSPCQRETPEGAEAKPWYEPIYLGGVFQLEKGDRLSAEINRPDYLNFRESGQVYFGIIALGGGGSSSRTPSDKPVAHVVANPQAEGQLQWLNRRANALLANGVELRDNQLVVPSEGLYLIYSQVLFKGQGCPSTHVLLTHTISRIAVSYQTKVNLLSAIKSPCQRETPEGAEAKPWYEPIYLGGVFQLEKGDRLSAEINRPDYLNFRESGQVYFGIIAL", "notes": "Trivalent single chain; also called TNFR2-selective human TNF variant; trivalent scTNFR2"}},
  "target": "T1, human TNFR2-Fc fusion protein (human, UniProt P20333 23-257)",
  "T1 construct": "also called huTNFR2-Fc; huTNFR2",
  "T1 sequence (looked up)": "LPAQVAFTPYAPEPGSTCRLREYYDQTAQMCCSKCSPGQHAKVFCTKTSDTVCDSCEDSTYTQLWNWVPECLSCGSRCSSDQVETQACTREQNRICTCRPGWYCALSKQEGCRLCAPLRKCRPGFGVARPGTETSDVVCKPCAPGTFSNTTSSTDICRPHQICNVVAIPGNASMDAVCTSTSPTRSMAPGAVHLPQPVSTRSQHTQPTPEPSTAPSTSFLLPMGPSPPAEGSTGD",
  "assay": "ELISA, huTNFR2-Fc coated at 1 µg/ml, bound protein detected with anti-TNF F6C5",
  "protocol": "ELISA plates (Greiner, Frickenhausen, Germany) were coated with huTNFR1-Fc, mTNFR1-Fc, huTNFR2-Fc or mTNFR2-Fc fusion proteins at 1 μg/ml in PBS and incubated at 4° C. overnight. Residual binding sites were blocked with 2% skim milk powder in PBS at RT for 2 hours. ScTNFR2 and the complexes were diluted in 2% skim milk powder in PBS and added at concentrations in the range of 10⁻³ to 10 nM and incubated for 1 hour at RT. Between each step, non-bound proteins were removed by washing 4 times with 0.005% Tween-20 in PBS.\nBound proteins were detected with mouse monoclonal antibodies to TNF (clone F6C5; 1 μg/ml; incubation for 1 hour at RT) and HRP-conjugated anti-mouse IgG antibodies (diluted 1:10000; incubation for 1 hour at RT), followed by incubation with tetramethylbenzidine (TMB) substrate solution. Reaction was stopped by addition of 1 M H₂SO₄ and the absorbance at 450 nm was determined with a Multiskan FC absorbance reader (Thermo Scientific, Karlsruhe, Germany) and data were analyzed using the software Microsoft Excel and GraphPad Prism 4 (GraphPad, La Jolla, Calif.) (FIG. 5). In Table 3, the calculated EC₅₀ values for the binding of TNF, scTNFR2 and the complexes to immobilized huTNFR2 and mTNFR2 based on the ELISA assay are summarized.",
  "data": [
    {"binder": "B1", "values": [
      {"measurement": "EC50", "result": 554, "unit": "pM"}
    ]}
  ]
}
